# Data published in the supplement of paper PMC8728848.
# This is one part of the list.
# Legend:
# Experiment in all cases: glycan array binding signal (z-score within array); higher = stronger binding
# Settings in all cases: glycan notation: IUPAC condensed, linker removed
# [1] = target: Gal(b1-4)GlcNAc(b1-3)Gal(b1-4)GlcNAc(b1-2)[Gal(b1-4)GlcNAc(b1-3)Gal(b1-4)GlcNAc(b1-6)]Man(a1-6)[Gal(b1-4)GlcNAc(b1-3)Gal(b1-4)GlcNAc(b1-2)Man(a1-3)]Man(b1-4)GlcNAc(b1-4)GlcNAc
# Summary of the method: (§1)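 Glycan array data were curated from 3228 arrays in the Consortium for Functional Glycomics database and kept only where the protein sequence was available. Glycan names were converted to IUPAC-condensed notation, and columns mapping to the same glycan were averaged. The binding signal is a within-array Z-score, averaged across arrays of the same protein sequence at different concentrations or buffers and across linkers. Negative Z-scores can be read as non-binding.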
# [2] = target: Gal(b1-4)GlcNAc(b1-3)Gal(b1-4)GlcNAc(b1-2)[Gal(b1-4)GlcNAc(b1-3)Gal(b1-4)GlcNAc(b1-6)]Man(a1-6)[Gal(b1-4)GlcNAc(b1-3)Gal(b1-4)GlcNAc(b1-2)Man(a1-3)]Man(b1-4)GlcNAc(b1-4)[Fuc(a1-6)]GlcNAc
# Summary of the method: as §1
# [3] = target: Gal(b1-4)GlcNAc(b1-3)Gal(b1-4)GlcNAc(b1-3)Gal(b1-4)GlcNAc
# Summary of the method: as §1
# [4] = target: Gal(b1-4)GlcNAc(b1-3)Gal(b1-4)GlcNAc(b1-3)Gal(b1-4)GlcNAc(b1-2)Man(a1-3)[Gal(b1-4)GlcNAc(b1-3)Gal(b1-4)GlcNAc(b1-3)Gal(b1-4)GlcNAc(b1-2)Man(a1-6)]Man(b1-4)GlcNAc(b1-4)GlcNAc
# Summary of the method: as §1
# [5] = target: Gal(b1-4)GlcNAc(b1-3)Gal(b1-4)GlcNAc(b1-3)Gal(b1-4)GlcNAc(b1-2)Man(a1-3)[Gal(b1-4)GlcNAc(b1-3)Gal(b1-4)GlcNAc(b1-3)Gal(b1-4)GlcNAc(b1-2)Man(a1-6)]Man(b1-4)GlcNAc(b1-4)[Fuc(a1-6)]GlcNAc
# Summary of the method: as §1
# [6] = target: Gal(b1-4)GlcNAc(b1-3)Gal(b1-4)GlcNAc(b1-3)Gal(b1-4)GlcNAc(b1-2)[Gal(b1-4)GlcNAc(b1-3)Gal(b1-4)GlcNAc(b1-3)Gal(b1-4)GlcNAc(b1-6)]Man(a1-6)[Gal(b1-4)GlcNAc(b1-3)Gal(b1-4)GlcNAc(b1-3)Gal(b1-4)GlcNAc(b1-2)Man(a1-3)]Man(b1-4)GlcNAc(b1-4)[Fuc(a1-6)]GlcNAc
# Summary of the method: as §1
# [7] = target: Gal(b1-4)GlcNAc(b1-3)Gal(b1-4)GlcNAc(b1-3)Gal(b1-4)GlcNAc(b1-3)Gal(b1-4)GlcNAc(b1-2)Man(a1-3)[Gal(b1-4)GlcNAc(b1-3)Gal(b1-4)GlcNAc(b1-3)Gal(b1-4)GlcNAc(b1-3)Gal(b1-4)GlcNAc(b1-2)Man(a1-6)]Man(b1-4)GlcNAc(b1-4)GlcNAc
# Summary of the method: as §1
# [8] = target: Gal(b1-4)GlcNAc(b1-3)Gal(b1-4)GlcNAc(b1-3)Gal(b1-4)GlcNAc(b1-3)Gal(b1-4)GlcNAc(b1-2)Man(a1-3)[Gal(b1-4)GlcNAc(b1-3)Gal(b1-4)GlcNAc(b1-3)Gal(b1-4)GlcNAc(b1-3)Gal(b1-4)GlcNAc(b1-2)Man(a1-6)]Man(b1-4)GlcNAc(b1-4)[Fuc(a1-6)]GlcNAc
# Summary of the method: as §1
# [9] = target: Gal(b1-4)GlcNAc(b1-3)Gal(b1-4)GlcNAc(b1-3)Gal(b1-4)GlcNAc(b1-3)Gal(b1-4)GlcNAc(b1-2)[Gal(b1-4)GlcNAc(b1-3)Gal(b1-4)GlcNAc(b1-3)Gal(b1-4)GlcNAc(b1-3)Gal(b1-4)GlcNAc(b1-6)]Man(a1-6)[Gal(b1-4)GlcNAc(b1-3)Gal(b1-4)GlcNAc(b1-3)Gal(b1-4)GlcNAc(b1-3)Gal(b1-4)GlcNAc(b1-2)Man(a1-3)]Man(b1-4)GlcNAc(b1-4)[Fuc(a1-6)]GlcNAc
# Summary of the method: as §1
# [10] = target: Gal(b1-4)GlcNAc(b1-3)Gal(b1-4)GlcNAc(b1-3)Gal(b1-4)GlcNAc(b1-3)Gal(b1-4)GlcNAc(b1-3)Gal(b1-4)GlcNAc(b1-2)Man(a1-3)[Gal(b1-4)GlcNAc(b1-3)Gal(b1-4)GlcNAc(b1-3)Gal(b1-4)GlcNAc(b1-3)Gal(b1-4)GlcNAc(b1-3)Gal(b1-4)GlcNAc(b1-2)Man(a1-6)]Man(b1-4)GlcNAc(b1-4)GlcNAc
# Summary of the method: as §1
# [11] = target: Gal(b1-4)GlcNAc(b1-3)Gal(b1-4)GlcNAc(b1-3)Gal(b1-4)GlcNAc(b1-3)Gal(b1-4)GlcNAc(b1-3)Gal(b1-4)GlcNAc(b1-2)Man(a1-3)[Gal(b1-4)GlcNAc(b1-3)Gal(b1-4)GlcNAc(b1-3)Gal(b1-4)GlcNAc(b1-3)Gal(b1-4)GlcNAc(b1-3)Gal(b1-4)GlcNAc(b1-2)Man(a1-6)]Man(b1-4)GlcNAc(b1-4)[Fuc(a1-6)]GlcNAc
# Summary of the method: as §1
# [12] = target: Gal(b1-4)GlcNAc(b1-3)Gal(b1-4)GlcNAc(b1-3)Gal(b1-4)GlcNAc(b1-3)Gal(b1-4)GlcNAc(b1-3)Gal(b1-4)GlcNAc(b1-2)[Gal(b1-4)GlcNAc(b1-3)Gal(b1-4)GlcNAc(b1-3)Gal(b1-4)GlcNAc(b1-3)Gal(b1-4)GlcNAc(b1-3)Gal(b1-4)GlcNAc(b1-6)]Man(a1-6)[Gal(b1-4)GlcNAc(b1-3)Gal(b1-4)GlcNAc(b1-3)Gal(b1-4)GlcNAc(b1-3)Gal(b1-4)GlcNAc(b1-3)Gal(b1-4)GlcNAc(b1-2)Man(a1-3)]Man(b1-4)GlcNAc(b1-4)[Fuc(a1-6)]GlcNAc
# Summary of the method: as §1
# [13] = target: Gal(b1-4)GlcNAc(b1-3)Gal(b1-4)GlcNAc(b1-3)Gal(b1-4)GlcNAc(b1-3)Gal(b1-4)GlcNAc(b1-3)Gal(b1-4)GlcNAc(b1-3)Gal(b1-4)GlcNAc(b1-2)Man(a1-3)[Gal(b1-4)GlcNAc(b1-3)Gal(b1-4)GlcNAc(b1-3)Gal(b1-4)GlcNAc(b1-3)Gal(b1-4)GlcNAc(b1-3)Gal(b1-4)GlcNAc(b1-3)Gal(b1-4)GlcNAc(b1-2)Man(a1-6)]Man(b1-4)GlcNAc(b1-4)GlcNAc
# Summary of the method: as §1
# [14] = target: Gal(b1-4)GlcNAc(b1-3)Gal(b1-4)GlcNAc(b1-3)GalNAc
# Summary of the method: as §1
# [15] = target: Gal(b1-4)GlcNAc(b1-3)Gal(b1-4)GlcNAc(b1-3)[Gal(b1-4)GlcNAc(b1-3)Gal(b1-4)GlcNAc(b1-6)]GalNAc
# Summary of the method: as §1
# [16] = target: Gal(b1-4)GlcNAc(b1-3)Gal(b1-4)GlcNAc(b1-6)[Gal(b1-3)]GalNAc
# Summary of the method: as §1
# [17] = target: Gal(b1-4)GlcNAc(b1-3)Gal(b1-4)[Fuc(a1-3)]GlcNAc(b1-3)Gal(b1-4)[Fuc(a1-3)]GlcNAc
# Summary of the method: as §1
# [18] = target: Gal(b1-4)GlcNAc(b1-3)GalNAc
# Summary of the method: as §1
# [19] = target: Gal(b1-4)GlcNAc(b1-3)[Fuc(a1-3)GlcNAc(b1-6)]Gal(b1-4)Glc
# Summary of the method: as §1
# [20] = target: Gal(b1-4)GlcNAc(b1-3)[Gal(b1-4)GlcNAc(b1-6)]Gal(b1-4)GlcNAc
# Summary of the method: as §1
# [21] = target: Gal(b1-4)GlcNAc(b1-3)[GlcNAc(b1-6)]Gal(b1-4)GlcNAc
# Summary of the method: as §1
# [22] = target: Gal(b1-4)GlcNAc(b1-6)Gal(b1-4)GlcNAc
# Summary of the method: as §1
# [23] = target: Gal(b1-4)GlcNAc(b1-6)GalNAc
# Summary of the method: as §1
# [24] = target: Gal(b1-4)GlcNAc(b1-6)[Gal(b1-3)]GalNAc
# Summary of the method: as §1
# [25] = target: Gal(b1-4)GlcNAc(b1-6)[Gal(b1-4)GlcNAc(b1-3)]GalNAc
# Summary of the method: as §1
# Gal(b1-4)GlcNAc6P = target: Gal(b1-4)GlcNAc6P
# Summary of the method: as §1
# Gal(b1-6)Gal = target: Gal(b1-6)Gal
# Summary of the method: as §1
# Gal3S(b1-3)GalNAc = target: Gal3S(b1-3)GalNAc
# Summary of the method: as §1
# Gal3S(b1-3)GlcNAc = target: Gal3S(b1-3)GlcNAc
# Summary of the method: as §1
# [26] = target: Gal3S(b1-3)[Fuc(a1-4)]GlcNAc
# Summary of the method: as §1
# Gal3S(b1-4)Glc = target: Gal3S(b1-4)Glc
# Summary of the method: as §1
# Gal3S(b1-4)Glc6S = target: Gal3S(b1-4)Glc6S
# Summary of the method: as §1
# Gal3S(b1-4)GlcNAc = target: Gal3S(b1-4)GlcNAc
# Summary of the method: as §1
# [27] = target: Gal3S(b1-4)[Fuc(a1-3)]Glc6S
# Summary of the method: as §1
# [28] = target: Gal3S(b1-4)[Fuc(a1-3)]GlcNAc
# Summary of the method: as §1
# [29] = target: Gal3S(b1-4)[Fuc(a1-3)]GlcNAc6S
# Summary of the method: as §1
# Gal3S4S(b1-4)GlcNAc = target: Gal3S4S(b1-4)GlcNAc
# Summary of the method: as §1
# Gal3S6S(b1-4)GlcNAc = target: Gal3S6S(b1-4)GlcNAc
# Summary of the method: as §1
# Gal3S6S(b1-4)GlcNAc6S = target: Gal3S6S(b1-4)GlcNAc6S
# Summary of the method: as §1
# Gal4S(b1-4)GlcNAc = target: Gal4S(b1-4)GlcNAc
# Summary of the method: as §1
# Gal4S6S(b1-4)GlcNAc = target: Gal4S6S(b1-4)GlcNAc
# Summary of the method: as §1
# Gal6P(b1-4)GlcNAc = target: Gal6P(b1-4)GlcNAc
# Summary of the method: as §1
# Gal6S(b1-3)GlcNAc = target: Gal6S(b1-3)GlcNAc
# Summary of the method: as §1
# Gal6S(b1-3)GlcNAc6S = target: Gal6S(b1-3)GlcNAc6S
# Summary of the method: as §1
# Gal6S(b1-4)Glc = target: Gal6S(b1-4)Glc
# Summary of the method: as §1
binder,measurement,setting,value
CBM40 CPF071 (Clostridium perfringens) (protein) MAHHHHHHVGTGSNDDDDKSPDPMLSSLGEYKDINLESSNASNITYDLEKYKNLDEGTIVVRFNSKDSKIQSLLGISNSKTKNGYFNFYVTNSRVGFELRNQKNEGNTQNGTENLVHMYKDVALNDGDNTVALKIEKNKGYKLFLNGKMIKEVKDTNTKFLNNIENLDSAFIGKTNRYGQSNEYNFKGNIGFMNIYNEPLGDDYLLSKTGETK,glycan array binding signal (z-score),[1],0.616
same,glycan array binding signal (z-score),[2],-0.522
same,glycan array binding signal (z-score),[3],-0.296
same,glycan array binding signal (z-score),[4],-0.093
same,glycan array binding signal (z-score),[5],-0.39
same,glycan array binding signal (z-score),[6],0.435
same,glycan array binding signal (z-score),[7],-0.376
same,glycan array binding signal (z-score),[8],0.149
same,glycan array binding signal (z-score),[9],0.876
same,glycan array binding signal (z-score),[10],-0.037
same,glycan array binding signal (z-score),[11],-0.285
same,glycan array binding signal (z-score),[12],-0.381
same,glycan array binding signal (z-score),[13],-0.325
same,glycan array binding signal (z-score),[14],0.218
same,glycan array binding signal (z-score),[15],0.16
same,glycan array binding signal (z-score),[16],-0.258
same,glycan array binding signal (z-score),[17],-0.133
same,glycan array binding signal (z-score),[18],-0.419
same,glycan array binding signal (z-score),[19],-0.209
same,glycan array binding signal (z-score),[20],-0.457
same,glycan array binding signal (z-score),[21],-0.405
same,glycan array binding signal (z-score),[22],-0.512
same,glycan array binding signal (z-score),[23],-0.021
same,glycan array binding signal (z-score),[24],-0.004
same,glycan array binding signal (z-score),[25],-0.382
same,glycan array binding signal (z-score),Gal(b1-4)GlcNAc6P,-0.265
same,glycan array binding signal (z-score),Gal(b1-6)Gal,-0.163
same,glycan array binding signal (z-score),Gal3S(b1-3)GalNAc,-0.43
same,glycan array binding signal (z-score),Gal3S(b1-3)GlcNAc,-0.411
same,glycan array binding signal (z-score),[26],-0.35
same,glycan array binding signal (z-score),Gal3S(b1-4)Glc,-0.474
same,glycan array binding signal (z-score),Gal3S(b1-4)Glc6S,-0.305
same,glycan array binding signal (z-score),Gal3S(b1-4)GlcNAc,-0.369
same,glycan array binding signal (z-score),[27],-0.052
same,glycan array binding signal (z-score),[28],-0.548
same,glycan array binding signal (z-score),[29],-0.109
same,glycan array binding signal (z-score),Gal3S4S(b1-4)GlcNAc,0.602
same,glycan array binding signal (z-score),Gal3S6S(b1-4)GlcNAc,-0.144
same,glycan array binding signal (z-score),Gal3S6S(b1-4)GlcNAc6S,-0.278
same,glycan array binding signal (z-score),Gal4S(b1-4)GlcNAc,0.207
same,glycan array binding signal (z-score),Gal4S6S(b1-4)GlcNAc,-0.321
same,glycan array binding signal (z-score),Gal6P(b1-4)GlcNAc,-0.436
same,glycan array binding signal (z-score),Gal6S(b1-3)GlcNAc,-0.48
same,glycan array binding signal (z-score),Gal6S(b1-3)GlcNAc6S,0.541
same,glycan array binding signal (z-score),Gal6S(b1-4)Glc,-0.246
